These are yes or no findings as the source states them, for the method shown.
Experiments:
Experiment in all cases: peptide or protein array; HuProt Human Proteome Microarray v2.0, full-length human proteins spotted in duplicate; V5-tagged TRPV4 protein in solution at 1 μM, 1 h at 4 °C, 150 mM NaCl, 2.7 mM KCl, 25 mM Trizma base, 0.05% Tween-20, pH 7.4; detected with Alexa Fluor 647 anti-V5; hit: z-score >= 2 (N terminus: both of 2 slides; ARD constructs: at least 2 of 3 slides); both purified
Centrin-3 (human) = target: T1, Centrin-3 (human) (UniProt O15182)
T1 sequence: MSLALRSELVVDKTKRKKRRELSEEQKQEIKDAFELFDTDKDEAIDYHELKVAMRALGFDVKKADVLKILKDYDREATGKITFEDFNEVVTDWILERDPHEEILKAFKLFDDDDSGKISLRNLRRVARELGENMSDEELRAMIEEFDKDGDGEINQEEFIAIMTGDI

The chains behind the UniProt entries cited, without tags or fusion partners.
UniProt O75822: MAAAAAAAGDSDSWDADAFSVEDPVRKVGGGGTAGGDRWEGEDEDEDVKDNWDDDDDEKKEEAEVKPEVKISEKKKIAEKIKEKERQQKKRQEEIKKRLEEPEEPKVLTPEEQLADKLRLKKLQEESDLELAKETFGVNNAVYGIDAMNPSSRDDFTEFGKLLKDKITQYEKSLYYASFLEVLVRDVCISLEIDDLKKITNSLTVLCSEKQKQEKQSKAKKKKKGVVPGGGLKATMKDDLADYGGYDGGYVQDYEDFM

Ermin (human) = target: T2, Ermin (human) (UniProt Q8TAM6)
T2 sequence: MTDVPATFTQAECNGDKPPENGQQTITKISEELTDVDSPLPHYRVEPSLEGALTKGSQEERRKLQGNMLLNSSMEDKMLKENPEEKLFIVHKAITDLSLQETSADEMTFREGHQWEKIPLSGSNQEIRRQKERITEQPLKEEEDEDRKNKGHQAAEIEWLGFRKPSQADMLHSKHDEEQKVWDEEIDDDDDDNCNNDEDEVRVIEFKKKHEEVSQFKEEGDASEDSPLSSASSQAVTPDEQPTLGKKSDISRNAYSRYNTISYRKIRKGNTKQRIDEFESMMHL

[1] = target: Eukaryotic translation initiation factor 3 subunit J (human) (UniProt O75822)
[2] = target: T3, Huntingtin-interacting protein K (human) (UniProt Q9NX55)
T3 sequence: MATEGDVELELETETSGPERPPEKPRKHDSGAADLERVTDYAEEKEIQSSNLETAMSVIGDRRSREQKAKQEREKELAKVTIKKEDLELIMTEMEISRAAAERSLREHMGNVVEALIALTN

[3] = target: T4, Kin of IRRE-like protein 3 (human) (UniProt Q8IZU9)
T4 sequence: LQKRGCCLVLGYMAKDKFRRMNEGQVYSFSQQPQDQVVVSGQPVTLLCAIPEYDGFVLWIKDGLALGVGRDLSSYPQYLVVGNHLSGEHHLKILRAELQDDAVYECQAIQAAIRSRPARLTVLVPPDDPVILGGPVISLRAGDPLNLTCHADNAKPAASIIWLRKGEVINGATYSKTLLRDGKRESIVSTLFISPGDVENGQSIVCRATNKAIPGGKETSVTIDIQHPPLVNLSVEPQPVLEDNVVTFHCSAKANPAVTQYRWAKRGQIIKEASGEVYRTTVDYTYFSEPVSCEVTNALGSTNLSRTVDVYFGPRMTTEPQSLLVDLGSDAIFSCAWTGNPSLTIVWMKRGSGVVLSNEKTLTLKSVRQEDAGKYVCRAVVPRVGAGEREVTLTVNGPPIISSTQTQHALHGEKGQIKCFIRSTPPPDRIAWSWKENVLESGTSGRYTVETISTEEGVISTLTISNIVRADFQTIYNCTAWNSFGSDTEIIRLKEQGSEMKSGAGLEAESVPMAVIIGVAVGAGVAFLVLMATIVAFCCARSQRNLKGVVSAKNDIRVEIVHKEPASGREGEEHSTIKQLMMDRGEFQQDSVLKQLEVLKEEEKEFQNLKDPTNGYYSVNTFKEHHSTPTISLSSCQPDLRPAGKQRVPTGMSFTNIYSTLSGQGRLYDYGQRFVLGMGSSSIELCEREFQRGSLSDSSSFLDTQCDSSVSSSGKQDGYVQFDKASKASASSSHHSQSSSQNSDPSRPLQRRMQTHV

[4] = target: T5, Progestin and adipoQ receptor family member 3 (human) (UniProt Q6TCH7)
T5 sequence: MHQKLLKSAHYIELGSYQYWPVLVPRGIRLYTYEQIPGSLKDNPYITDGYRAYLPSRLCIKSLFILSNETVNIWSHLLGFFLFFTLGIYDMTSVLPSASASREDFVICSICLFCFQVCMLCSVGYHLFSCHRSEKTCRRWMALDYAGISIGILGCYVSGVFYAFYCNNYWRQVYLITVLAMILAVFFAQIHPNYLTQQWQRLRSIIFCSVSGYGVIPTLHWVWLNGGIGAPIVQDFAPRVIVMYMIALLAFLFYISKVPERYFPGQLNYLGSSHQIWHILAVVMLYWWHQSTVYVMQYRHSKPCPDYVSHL

Measured: binding

TRPV4^R315W-ARD (from UniProt Q9HBA0 149-397) (domain or fragment)
no binding (tested: 1 μM): all assays above

TRPV4^R269C-ARD (from UniProt Q9HBA0 149-397) (domain or fragment)
no binding (tested: 1 μM): all assays above

Reference: article PMC12796746
